Reference: the supplement of paper PMC11741623
The list shows a part of the results. Interaction screen of human proteins with wild-type SARS-CoV-2 proteins by split-DHFR complementation in yeast, 1 µg/mL methotrexate. Value = fitness of the pair (three or more lineages) minus that of the viral protein without a human partner, on a scale set by negative (0) and fused positive (1) controls, mean of up to three cultures; higher = more likely to interact. Active = false discovery rate below 0.05 (one-sided t-test) in at least one culture. Nearly all pairs are not hits, and differences among them are mostly noise (correlation between cultures about 0.3); most hits were seen in one culture only. Human sequences are the Swiss-Prot entries looked up by gene name; the clone may be another isoform. NSP2 values were corrected by the authors for a growth advantage. Listed are human proteins with a hit and a random twelfth of the others.

Experiments:
Assay in all cases: yeast fitness gain over the viral ORF with no human partner (scaled fitness); higher = more likely to interact
SARS-CoV-2 M = target: SARS-CoV-2 M
Experimental: (§1)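 Split mouse DHFR complementation in pooled diploid yeast: human ORFeome clones carry one fragment and viral ORFs the other; barcoded lineages compete in 1 µg/mL methotrexate and fitness is read by barcode sequencing in up to three cultures.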

SARS-CoV-2 N = target: SARS-CoV-2 N
Experimental: as §1

SARS-CoV-2 NSP10 = target: SARS-CoV-2 NSP10
Experimental: as §1

SARS-CoV-2 NSP12 = target: SARS-CoV-2 NSP12
Experimental: as §1

SARS-CoV-2 NSP13 = target: SARS-CoV-2 NSP13
Experimental: as §1

SARS-CoV-2 NSP15 = target: SARS-CoV-2 NSP15
Experimental: as §1

SARS-CoV-2 NSP16 = target: SARS-CoV-2 NSP16
Experimental: as §1

SARS-CoV-2 NSP2 = target: SARS-CoV-2 NSP2
Experimental: as §1

SARS-CoV-2 NSP5 = target: SARS-CoV-2 NSP5
Experimental: as §1

SARS-CoV-2 NSP6 = target: SARS-CoV-2 NSP6
Experimental: as §1

SARS-CoV-2 NSP7 = target: SARS-CoV-2 NSP7
Experimental: as §1

SARS-CoV-2 NSP8 = target: SARS-CoV-2 NSP8
Experimental: as §1

SARS-CoV-2 NSP9 = target: SARS-CoV-2 NSP9
Experimental: as §1

SARS-CoV-2 ORF10 = target: SARS-CoV-2 ORF10
Experimental: as §1

SARS-CoV-2 ORF3A = target: SARS-CoV-2 ORF3A
Experimental: as §1

SARS-CoV-2 ORF3B = target: SARS-CoV-2 ORF3B
Experimental: as §1

SARS-CoV-2 ORF6 = target: SARS-CoV-2 ORF6
Experimental: as §1

SARS-CoV-2 ORF7A = target: SARS-CoV-2 ORF7A
Experimental: as §1

SARS-CoV-2 ORF7B = target: SARS-CoV-2 ORF7B
Experimental: as §1

SARS-CoV-2 ORF8 = target: SARS-CoV-2 ORF8
Experimental: as §1

SARS-CoV-2 ORF9B = target: SARS-CoV-2 ORF9B
Experimental: as §1

SARS-CoV-2 S = target: SARS-CoV-2 S
Experimental: as §1

SARS-CoV-2 NSP14 = target: SARS-CoV-2 NSP14
Experimental: as §1

SARS-CoV-2 NSP4 = target: SARS-CoV-2 NSP4
Experimental: as §1

[1] = target: SARS-CoV-2 ORF9Bwu (the 73-codon ORF)
Experimental: as §1

SARS-CoV-2 NSP1 = target: SARS-CoV-2 NSP1
Experimental: as §1

Measured: yeast fitness gain

B1: C8orf34, Q49A92 (protein)
chain: MSSPLASELSELAALRPGFRLSAPHARVAPRAATHARGRGRASHAGQPRLRSSCPGPSPGKRRVVPSGGAQPRVLPALSSRSHLFPMASHPQTRIQAYLEKNKIGPLFEELMTKLITETPDQPIPFLIDHLQSKQGNRGQLQRTLSGSAALWAESEKSESKGTRRDFRSYDKPWQLNAKKPKKSKSDLAVSNISPPSPDSKSLPRSVEHPKWNWRTKPQSRDFDELNHILQESKKLGKALENLSRSIAISDELDKETVTFNSSLLRPRVIGEWIGREENDADPLAAEMLQPPIPRSKNDQWESEDSGSSPAGSLKMEPKNKGLKQQQQQHKKLLAAMLSQDSFESIHSPTPSVTEEDIDNEDDAMELLEDLNDLRMEGVTTLVPSGSKFNQGRPTYPAEPQAKVTLNICSRCARLQGDNLEERTEESLPILHSPDEKIPDSFDSLPGTEEALMEEGDEFEKASKLTGPGEASSGVGHSLKNYMEEDESLKQLQVVHQPWILPSDTESEGVEAEQEKRSADLLLCVPCSSCPTLVYSGL
inactive: SARS-CoV-2 M 0.0112 | SARS-CoV-2 N 0.0446 | SARS-CoV-2 NSP10 = -0.018 | SARS-CoV-2 NSP12 = -0.146 | SARS-CoV-2 NSP13 = -0.0124 | SARS-CoV-2 NSP15 = 0.0673 | SARS-CoV-2 NSP16 = 0.0562 | SARS-CoV-2 NSP2 = -0.176 | SARS-CoV-2 NSP5 = 0.0589 | SARS-CoV-2 NSP6 = 0.0225 | SARS-CoV-2 NSP7 = -0.0771 | SARS-CoV-2 NSP8 = 0.105 | SARS-CoV-2 NSP9 = -0.115 | SARS-CoV-2 ORF10 = 0.0474 | SARS-CoV-2 ORF3A -0.165 | SARS-CoV-2 ORF3B -0.0632 | SARS-CoV-2 ORF6 = -0.0033 | SARS-CoV-2 ORF7A -0.16 | SARS-CoV-2 ORF7B 0.00776 | SARS-CoV-2 ORF8 = -0.0396 | SARS-CoV-2 ORF9B 0.00496 | SARS-CoV-2 S -0.13

B2: FIBP, O43427 (protein)
chain: MTSELDIFVGNTTLIDEDVYRLWLDGYSVTDAVALRVRSGILEQTGATAAVLQSDTMDHYRTFHMLERLLHAPPKLLHQLIFQIPPSRQALLIERYYAFDEAFVREVLGKKLSKGTKKDLDDISTKTGITLKSCRRQFDNFKRVFKVVEEMRGSLVDNIQQHFLLSDRLARDYAAIVFFANNRFETGKKKLQYLSFGDFAFCAELMIQNWTLGAVGEAPTDPDSQMDDMDMDLDKEFLQDLKELKVLVADKDLLDLHKSLVCTALRGKLGVFSEMEANFKNLSRGLVNVAAKLTHNKDVRDLFVDLVEKFVEPCRSDHWPLSDVRFFLNQYSASVHSLDGFRHQALWDRYMGTLRGCLLRLYHD
inactive: SARS-CoV-2 M 0.0251 | SARS-CoV-2 N 0.0349 | SARS-CoV-2 NSP12 = -0.0433 | SARS-CoV-2 NSP13 = 0.00923 | SARS-CoV-2 NSP14 = -0.102 | SARS-CoV-2 NSP15 = 0.0779 | SARS-CoV-2 NSP2 = -0.16 | SARS-CoV-2 NSP4 = -0.041 | SARS-CoV-2 NSP5 = 0.101 | SARS-CoV-2 NSP6 = -0.168 | SARS-CoV-2 NSP7 = -0.0327 | SARS-CoV-2 NSP8 = -0.0572 | SARS-CoV-2 ORF10 = 0.0527 | SARS-CoV-2 ORF3B 0.0947 | SARS-CoV-2 ORF6 = 0.0406 | SARS-CoV-2 ORF7A 0.074 | SARS-CoV-2 ORF7B 0.103 | SARS-CoV-2 ORF8 = 0.0113 | SARS-CoV-2 ORF9B 0.0249 | [1] 0.127 | SARS-CoV-2 S 0.0856

B3: GBAS, O75323 (protein)
chain: MAARVLRARGAAWAGGLLQRAAPCSLLPRLRTWTSSSNRSREDSWLKSLFVRKVDPRKDAHSNLLAKKETSNLYKLQFHNVKPECLEAYNKICQEVLPKIHEDKHYPCTLVGTWNTWYGEQDQAVHLWRYEGGYPALTEVMNKLRENKEFLEFRKARSDMLLSRKNQLLLEFSFWNEPVPRSGPNIYELRSYQLRPGTMIEWGNYWARAIRFRQDGNEAVGGFFSQIGQLYMVHHLWAYRDLQTREDIRNAAWHKHGWEELVYYTVPLIQEMESRIMIPLKTSPLQ
inactive: SARS-CoV-2 M 0.0109 | SARS-CoV-2 NSP1 = -0.0583 | SARS-CoV-2 NSP10 = 0.0581 | SARS-CoV-2 NSP12 = -0.0743 | SARS-CoV-2 NSP13 = 0.0703 | SARS-CoV-2 NSP15 = -0.0762 | SARS-CoV-2 NSP16 = -0.129 | SARS-CoV-2 NSP2 = -0.0645 | SARS-CoV-2 NSP4 = -0.268 | SARS-CoV-2 NSP5 = -0.0608 | SARS-CoV-2 NSP6 = -0.135 | SARS-CoV-2 NSP7 = 0.0249 | SARS-CoV-2 NSP8 = -0.061 | SARS-CoV-2 NSP9 = -0.0141 | SARS-CoV-2 ORF10 = -0.0211 | SARS-CoV-2 ORF3A 0.0476 | SARS-CoV-2 ORF3B 0.00182 | SARS-CoV-2 ORF6 = -1.7e-05 | SARS-CoV-2 ORF7A 0.00169 | SARS-CoV-2 ORF7B -0.0796 | SARS-CoV-2 ORF8 = 0.0557 | SARS-CoV-2 ORF9B 0.0525 | [1] 0.0547 | SARS-CoV-2 S -0.00227
